Laboratory results from PubChem BioAssay AID686979 (National Center for Advancing Translational Sciences (NCATS), 2013).
Values joined by “and” are separate entries in the source; they are usually repeats but may differ in a detail not shown here. Identical values can stand only once. About 50,000 (12%) of roughly 420,000 compounds were called active. The inconclusive results got no clear call from the source; some entries with a clear call stand among them for comparison. Calls come from the whole dose curve; as a rule, active = well fitted inhibition curve with a large enough effect; inconclusive = small, poorly fitted or top-dose-only effect; inactive = flat fitted curve, though single readings scatter. Potencies beside an inconclusive call are fits to weak or partial responses and may not hold up.

Assay: qHTS for Inhibitors of human tyrosyl-DNA phosphodiesterase 1 (TDP1): qHTS in cells in presence of CPT; note: nearly all actives have a fitted effect of over 55% in size
Details: chicken DT40 Tdp1-/-;hTDP1 cells + 20 nM CPT, ATP luminescence, 48 h; activity change, negative = growth inhibition: at 46.2 µM (top of the series) unless noted
Summary of the method: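 Chicken DT40 Tdp1-/- cells complemented with human TDP1, 400 cells/well, exposed to compounds plus 20 nM camptothecin for at least 48 h at 37 C; viability read as ATP content by CellTiter-Glo luminescence.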
% is set by controls: 0 for no effect and ±100 for the full control effect; potency is the fitted concentration of half-maximal effect; tags give direction and shape of the fitted curve.

Compound	Potency	activity change, negative = growth inhibition
CN(Cc1cn(C)nc1-c1ccccc1F)CC1CCN(Cc2ccccc2)CC1	inconclusive: 29.1 µM [inhibitor, single point]	–
Cc1cccc2nc(-c3cccc(NS(=O)(=O)c4ccccc4)c3)cn12	inconclusive: 29.1 µM [inhibitor, single point]	–
CN(c1ccc(F)cc1)S(=O)(=O)c1ccc(Cl)c(C(=O)NCC(c2ccco2)N2CCCCC2)c1 (configuration not stated)	active: 2.31 µM	–
Cc1ccc(C)c(CSc2nc3ccncc3n2CC(=O)Nc2ccc(N(C)C)cc2)c1	inconclusive: 23.1 µM [inhibitor, single point]	–
CCC(C)NC(=O)CSc1nc2c(sc3ccccc32)c(=O)n1Cc1ccccc1Cl (configuration not stated)	inconclusive: 25.9 µM [inhibitor, single point]	–
CCOC(=O)c1ccc(NC(=O)COc2ccccc2CNCCc2ccccc2)cc1	inconclusive: 29.1 µM [inhibitor, single point]	–
CCCCn1c(O)c(N=NC(=O)Cn2c(C(F)(F)F)nc3ccccc32)c2ccccc21	inconclusive: 4.61 µM [inhibitor, single point]	–
CC12CCC(=O)N1C(C(=O)N1CCN(S(=O)(=O)c3ccc(Br)cc3Cl)CC1)CS2 (configuration not stated)	inconclusive: 16.4 µM [inhibitor, single point]	–
NC(=O)c1c(NC(=O)c2c(F)cccc2F)sc2c1CCN(Cc1ccccc1)C2	inconclusive: 16.4 µM [inhibitor, single point]	–
COC(=O)C1=C(CN2CCc3ccccc32)NC(=O)NC1c1cc(C)ccc1C (configuration not stated)	inconclusive: 23.1 µM [inhibitor, single point]	–
Clc1ccccc1CNc1ncnc2c1c(-c1ccccc1)cn2-c1ccccc1	inconclusive: 29.1 µM [inhibitor, single point]	–
Cc1cc(C)c(NC(=O)Nc2ccc3snnc3c2)c(C)c1	inconclusive: 20.6 µM [inhibitor, single point]	–
CCOc1ccc(/C=N/OC(C)C(=O)NCc2ccc3c(c2)OCO3)cc1 (configuration not stated)	inconclusive: 29.1 µM [inhibitor, single point]	–
CC(C)(C)OCC1CO1 (configuration not stated)	inactive	–
O=C(c1ccncc1)N1CCC2(CC1)CN(c1cccc(-c3ccccc3)c1)C2	inconclusive: 14.6 µM [inhibitor, partial curve, poor fit]	–
O=C(CN1CCN(C2CCCCC2)CC1)NCCC1=CCCCC1	inconclusive: 18.4 µM [inhibitor, single point]	–
CCCNS(=O)(=O)/C=C/c1ccccc1	inactive	–
Fc1ccccc1Cn1c(-c2ccccc2)nc2ccccc21	inconclusive: 23.1 µM [inhibitor, single point]	–
CCN(CC)C(=O)c1cccc(-c2csc(C(C)(NC(C)=O)c3ccc(OC)cc3)n2)c1 (configuration not stated)	inconclusive: 29.1 µM [inhibitor, single point]	–
COc1ccc(-c2nc3c(C)cc(Br)cn3c2Cc2ccc(C)cc2)cc1OC	inconclusive: 20.6 µM [inhibitor, single point]	–
CCOC(=O)c1c(NC(=O)c2cccs2)sc(CC)c1-c1cccs1	inconclusive: 20.6 µM [inhibitor, single point]	–
NC(=O)[C@H]1CC2(CC(c3cccc(NC(=O)CC(c4ccccc4)c4ccccc4)c3)=NO2)CN1C(=O)c1ccccc1C(=O)c1ccccc1 (some centres not stated)	active: 13 µM	–
COCCN1Cc2cccc(C(=O)NC3CCCCCC3)c2C1=O	inconclusive: 20.6 µM [inhibitor, single point]	–

Compound	Potency	activity change, negative = growth inhibition
CCN(C(=O)c1cc2c(=O)[nH]c3ccc(C)cc3c2s1)c1ccccc1C	active: 2.59 µM	–
CC1CCCC(C)N1C(=O)CSc1nnc(COc2cccc3cccnc23)o1 (configuration not stated)	inactive	–
CCN(CC)CCN1C(=O)C(=O)/C(=C(/O)c2ccc(C)cc2)C1c1cccnc1 (configuration not stated)	inactive	–
O=c1c2ccccc2nc(COc2ccccc2)n1/N=C/c1cn[nH]c1-c1ccccc1	active: 20.6 µM	–
O=C(/C=C/c1ccccc1)NC(=O)c1ccccc1O	inconclusive: 20.6 µM [inhibitor, single point]	–
CN(Cc1ccc(Cl)cc1Cl)C(=O)C1CC(=O)N(Cc2ccco2)C1 (configuration not stated)	inactive	–
Cc1ccccc1OCc1nnc(SCc2cc(=O)c3cccc(F)c3[nH]2)n1C	inconclusive: 29.1 µM [inhibitor, single point]	–
Cc1ccnc(N2CCN(C(=O)CSc3nc4ccccc4nc3N3CCCCC3)CC2)c1	inconclusive: 29.1 µM [inhibitor, single point]	–
CCOC(=O)c1ccc(NC(=O)N2CCN(c3ccccc3OC)CC2)cc1	inconclusive: 29.1 µM [inhibitor, single point]	–
Cc1cc(OC(=O)c2c(C)cc(O)cc2O)cc(O)c1C(=O)O	inconclusive: 0.0103 µM [inhibitor, full curve]	–
Cc1ccc(-c2noc(-c3ccccc3C(=O)N3CCN(C)CC3)n2)cc1	inactive	–
CC(=O)c1ccc(NC(=O)COCc2cc(-c3ccco3)on2)cc1	inconclusive: 18.4 µM [inhibitor, partial curve]	–
C[C@]12c3[nH]c4cc(-c5ccco5)ccc4c3CCN1C(=O)[C@@H](CC(=O)NCC13CC4CC(CC(C4)C1)C3)C[C@@H]2C(=O)N1CCCCC1	active: 5.17 µM	–
COc1ccc(/C=N/Nc2c(Cl)cc(Cl)cc2Cl)cc1CN1CCOCC1	active: 16.4 µM	–
Cc1ccc(N2C(=O)CC(Nc3ccc(Cl)c(S(=O)(=O)N(C)C)c3)C2=O)c(C)c1 (configuration not stated)	inactive	–
Cc1cccc(C)c1NC(=S)N/N=C/c1ccc(OCCC(C)C)cc1	active: 9.2 µM	–
CCOC(=O)C[C@H]1c2ccc(C(F)(F)F)cc2S(=O)(=O)N1c1cccc(OC)c1	inconclusive: 35.5 µM [inhibitor, single point] and inconclusive: 29.1 µM [inhibitor, single point]	–
COc1ccccc1-c1n[nH]c2c1[C@H](C)CC[C@H]2C(C)C	–	inconclusive: -32.2% [inhibitor]
Cc1cccc(C)c1NC(=O)C(C1CC1)n1c(=O)c(-c2cc3ccccc3[nH]2)nc2ccccc21 (configuration not stated)	inconclusive: 29.1 µM [inhibitor, single point]	–
O=C(NCc1ccc2c(c1)OCO2)C1CCCN(S(=O)(=O)c2cccc3nonc23)C1 (configuration not stated)	inconclusive: 29.1 µM [inhibitor, single point]	–
COc1ccc2c(c1)c1c(c(=O)n(-c3cccc(Cl)c3)c(=O)n1CC(=O)N1CCCC1)n2C	active: 23.1 µM	–
O=C(Nc1ccc(Cl)cc1)N1CCN(c2ccccc2)CC1	inconclusive: 29.1 µM [inhibitor, single point]	–
Fc1cccc(CCN2CCNC[C@@H]2c2ccccc2)c1	inconclusive: 25.9 µM [inhibitor, single point]	–

Compound	Potency	activity change, negative = growth inhibition
Cc1ccc2oc3c(c(=O)c2c1)C(c1cccc(O)c1)N(c1ccccn1)C3=O (configuration not stated)	inconclusive: 29.1 µM [inhibitor, single point]	–
CC(c1ccccc1)n1cc(C(=O)NCC2COc3ccccc3O2)nn1 (configuration not stated)	inconclusive: 29.1 µM [inhibitor, single point]	–
CCCCCNC(=O)C1CC(=O)OC12CCCCC2 (configuration not stated)	inactive	–
Cc1noc(C)c1S(=O)(=O)Nc1cc(C(F)(F)F)ccc1N1CCOCC1	inactive	–
Cc1cc(C)n(-c2nc(C)nc(NCc3ccccc3)n2)n1	active: 25.9 µM	–
O=C(Nc1cccnc1)c1sc(Nc2ccccc2)nc1-c1ccccc1	inconclusive: 29.1 µM [inhibitor, single point]	–
CNC[C@H]1Oc2c(NS(=O)(=O)c3cccs3)cccc2C(=O)N([C@H](C)CO)C[C@@H]1C	inactive	–
O=C(NCCN1CCCC1)c1ccc2c(c1)N(Cc1ccc(F)cc1)C(=O)c1ccccc1S2=O (configuration not stated)	inconclusive: 23.1 µM [inhibitor, single point]	–
COc1cccc(N2CCN(c3ccc4nnc(CCC(=O)Nc5ncccc5C)n4n3)CC2)c1	inactive	–
Cc1ccc(S(=O)(=O)CCN2C=CC(C(F)(F)F)=NCC2)cc1	inactive	–
Cc1ccc(C(=O)/C=C/c2cn(CN3CCN(C)CC3)c3ccccc23)cc1	inactive	–
Cn1nc(C(F)(F)F)c(-c2ccc(Br)cc2)c1NC(=O)Nc1ccc(F)cc1F	inconclusive: 29.1 µM [inhibitor, single point]	–
COc1ccc(NC(=O)O[C@@H](C)[C@@H]2CN3CCc4c([nH]c5ccc(-c6ccc(OC)cc6)cc45)[C@@H]3C[C@@H]2N(C)C(=O)Nc2ccc(OC)cc2)cc1	inconclusive: 23.1 µM [inhibitor, single point]	–
Cc1ccc2c(c1)-c1c(cnn1CC(=O)NC(C)CCc1ccco1)CO2 (configuration not stated)	inconclusive: 29.1 µM [inhibitor, single point]	–
COC1Cc2ccccc2N(C(N)=O)c2ccccc21 (configuration not stated)	inactive	–
CC(C)(C)c1ccc(-n2ncc3c2CCCC3NC(=O)CCCn2cncn2)cc1 (configuration not stated)	active: 13 µM	–
Cc1cc(NC(=O)C2CCN(S(=O)(=O)c3ccc4[nH]c(=O)oc4c3)CC2)ccc1Br	inconclusive: 29.1 µM [inhibitor, single point]	–
CCC(=O)O[C@H](CC(=O)O)C[N+](C)(C)C	inactive	–
Fc1ccc(CSc2nnc(-c3cnccn3)n2Cc2ccco2)cc1	inactive	–
COc1ccc(-c2cn3cc(C(=O)NN)ccc3n2)cc1	inconclusive: 25.9 µM [inhibitor, single point]	–
Cc1ccc(Cn2nnc3c(=O)[nH]c(C4CCN(S(=O)(=O)c5cc(C)ccc5C)CC4)nc32)cc1	inconclusive: 20.6 µM [inhibitor, single point]	–
